Laboratory results as given in the supplement of paper PMC11417369.
± gives the standard deviation of the averaged measurements. The list shows a part of the results.

System: PfAP2-I AP2 domain 3 (GST-tagged)
Experiment: gcPBM binding intensity (ln(normalized median fluorescence intensity)); higher = stronger DNA binding
Procedure, shortened: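 The binding buffer was 1× PBS containing 1% milk, 0.2 mg/ml BSA, 0.5% salmon testes DNA and 0.03% Triton X-100. In it, GST-tagged P. falciparum DNA-binding domains expressed in E. coli were applied for 1 h to an Agilent 4 × 180k array of primer-extended double-stranded 36-bp intergenic genomic probes plus negative controls. Binding intensity, read with Alexa488 anti-GST antibody and a 488 nm scan, is the highest Masliner-normalised natural-log median intensity across replicate spots of either probe orientation.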

Sequence	gcPBM binding intensity (ln)
ATAAATATTAAAAGTACACACAGATACACTAATTAT [CACACA_site1808]	7.92 ± 0.52
ATATGACATAAAACATGTACATGTTCATAAATATAT [XGTACX_site1923]	7.89 ± 0.47
TACACTTTTTATGAAGTGCATGTATAGCTCTTAAAA [GTGCAC_site9595]	8.38 ± 0.28
ATTTACATAATAAAATGTACATTTATAAATATTATA [XGTACX_site1901]	7.75 ± 0.35
CATTATTCATTTTGGATGCACTGACAGAAAAATGGT	9.63 ± 0.099
ATGCTCAGGAAAACATGTACAAAATTATTTGTTATA [XGTACX_site4306]	7.6 ± 0.42
TTATAATAATATAATACATGCATATATATTTAAATA [TGCATGCA_site903]	7.84 ± 0.61
ATAAACATATAAAAAGTGCATATTCATATATCTACT	9.365 ± 0.092
AATACACTAAACAAAAGTACAAAAATATTCTACAAA [XGTACX_site5162]	7.67 ± 0.53
ATGGCCTCATTTGGGACACACAACATAAAATATATA [CACACA_site753]	7.66 ± 0.69
AAATATATTTTATGTACACACAAAATTAAGGGATAT [CACACA_site4881]	8.09 ± 0.5
TGTTAATTATAAATTTGTACTTATTTTTACAAAATA [XGTACX_site6598]	7.82 ± 0.26
CATTTTTTATTTCCTTGTACGAATAAAATATATTTA [XGTACX_site6844]	7.99 ± 0.36
AATTTAATATAATGCACACATAAAACAAAAACAAAA [CACACA_site529]	10.8 ± 0.72
TATTATCGTTCTCATACACACAAAATATACATACAC [CACACA_site2643]	8.12 ± 0.3
TACGTAAATGTGTGTGTGCACGTTATATATTAATAT [GTGCAC_site9976]	10.4 ± 0.35
ATATAATAATAAAGACGTACAAATGTATATATATAC [XGTACX_site3123]	7.97 ± 0.45
CCTTTTTATCTTTTTGTGCACAGACCTTTTTTAAAT	10.835 ± 0.007
ATGTAAGTTGTGCATTCACACACATATATATATATA [CACACA_site9086]	9.83 ± 0.16
ATTTTTTTTTTTTTTTTTTTTTTATTCTTGTAATCT [CACACA_negctrl_site1039]	7.58 ± 0.61
AAAAAAAAAAAAAACATACACACAATAAAATAGGGG [CACACA_site2398]	8.54 ± 0.54
TATTTAAATTTTAAGTGTACATATTTATTTATATCT [XGTACX_site6545]	7.81 ± 0.18

Sequence	gcPBM binding intensity (ln)
AAAAAAAAAAAAATCACACATAATATAGAATATGTA [CACACA_site4993]	7.43 ± 0.3
ATATATATATATATAACACACGCAAAAAAATTAAAT [CACACA_site8395]	9.495 ± 0.064
AACTTAAAAAATAAATGTACATAAATATAAACATAT [XGTACX_site2987]	7.63 ± 0.49
AAAATGAATAAAAATACACACATATCTGTTATTCTC [CACACA_site5474]	7.46 ± 0.61
GAATATTAATTCATACGTACTTATATATAAGTATAT [XGTACX_site3707]	7.7 ± 0.43
TCACTATAATAATTTACACACATTTTAAGAAAATGT [CACACA_site3530]	7.7 ± 0.31
TATAAAAATGGGCACACACACACATATATATATTTA [CACACA_site1527]	8.02 ± 0.35
GATGTTCATCACTACACACACAAAGAAATATATATA [CACACA_site2684]	7.97 ± 0.73
TTGTATTTCCTTAGGAGTACACATAAATAAGTAAAT [XGTACX_site6677]	8.22 ± 0.092
AAAGAAAAAAAATATAAAAAATAAAAAATAAAACAA [CACACA_negctrl_site374]	7.54 ± 0.59
TAATATATGTATATATGTACATATAAATGTTATAGA [XGTACX_site2721]	7.8 ± 0.32
TTGGTATAAAATTATAGTACATAAGGTAAATATAAA [XGTACX_site4698]	7.89 ± 0.36
ATTTATATGTGGAGCAGTACGCACTCTCACAATTAA [XGTACX_site7252]	8.55 ± 0.33
TAAAAATTATATATCACACATATATGTCAGTATACA [CACACA_site4624]	7.49 ± 0.49
ATCATTTTTAAAGGAACACACAAAAAAAATTAAAAT [CACACA_site4878]	7.86 ± 0.73
ACATATATTATTATATGTACATATATTAATTATATA [XGTACX_site3400]	7.81 ± 0.057
ACTCTCTTATATTAAACACACATATATATCTGTATA [CACACA_site5489]	8.21 ± 0.65
CTTCTCTTTTTTATCATGCACTTTTTGTATAATAAT [GTGCAC_site9834]	9.7 ± 0.18
GTAAAATATATAAAATGTACATATATTATATATATA [XGTACX_site489]	8.54 ± 0.28
TTTCTTTATTAAAATATTTTACATATATAATATACG [TGCATGCA_negctrl_site564]	7.92 ± 0.55
CATTTAAAAGATAAAACACACATACTAATAAAAAAC [CACACA_site5417]	8.06 ± 0.56
AGAATACATATATGAACACACAGAGTTTTAAAAAAT [CACACA_site2735]	7.94 ± 0.31

Sequence	gcPBM binding intensity (ln)
TTTAAATAATCTAGGTGTACTTTCCTTTATAAATGT [XGTACX_site7859]	7.72 ± 0.44
TATTTCAATATATACCTTTGCTTTTTTAATATACTT [XGTACX_negctrl_site556]	7.75 ± 0.6
AATATAAATAAAAACACACACAATGGTACCTATATA [CACACA_site7688]	7.83 ± 0.61
TCAATATAAATTAGTTGTACAGTTTTTTTTAATTAT [XGTACX_site6358]	7.62 ± 0.49
ATCAAATAATAGCAAACACACAAAAAATAAAAAAAA [CACACA_site4146]	7.72 ± 0.54
AATGTTTTTTTTTTTTTTTTTTTTTATTTATTGTTA [CACACA_negctrl_site505]	7.36 ± 0.42
ATTTTTTGGAAAAGAAGTACAATGGATTTATACGTT [XGTACX_site891]	7.81 ± 0.4
TAACATATAATATTATGTACATATATACATATATAA [XGTACX_site7467]	7.75 ± 0.18
AAAAAATCACGACACACACACACACTAAAAAAAAAA [CACACA_site6792]	8.33 ± 0.34
CACTACATTATGTCATAAATGCATACATAAACATAT [GTGCAC_negctrl_site513]	8 ± 0.54
TTTATATTTCAATTTTGTGCTTCGCAAATTGAGAGG [TGCATGCA_negctrl_site327]	7.57 ± 0.42
TATAACATAATATAGACACACACATGTACTTATGCC [CACACA_site8547]	7.91 ± 0.38
GAAAAGCATAGATGCACACATATATATATATATATA [CACACA_site2169]	9.4 ± 0.35
GTGTTAATTTTAAATTGTACAAAATTTATATGATTT [XGTACX_site348]	7.83 ± 0.38
ATTAATTTTGGTTCATGTACATAAGAAATAAACTCT [XGTACX_site4534]	7.97 ± 0.35
ATTTTTATACGTTTTTTTTTTTTTTTTTTTTATTTA [CACACA_negctrl_site1142]	7.41 ± 0.71
ATATACTTTTTTTTTTTTTTTTTAACGTTATTTATG [CACACA_negctrl_site1277]	7.54 ± 0.53
AAAATATATGAAAACAGTACATATAAAAATTAAAAA [XGTACX_site2594]	7.65 ± 0.62
TTACACATATATATAAATATATATAAATATATATAT [CACACA_negctrl_site150]	8.42 ± 0.31
TATTTGTTTGAATTTTTTTTTTTTTTTTTTTATGTG [CACACA_negctrl_site966]	7.18 ± 0.3
TACAGACAGAAATGCACACACATATATATATATATA [CACACA_site2283]	9.53 ± 0.18
TATATTTATATCCACTTCGTTTAACGCACAGATATA [CACACA_negctrl_site954]	9.71 ± 0.28

Sequence	gcPBM binding intensity (ln)
TGAGATATAAAAATATGTACTTATGTATAAATATTT [XGTACX_site7746]	7.6 ± 0.55
CCAAATTTATTTTGTAGTACTCCGTATAGATCAACA [XGTACX_site7945]	8.06 ± 0.11
ATTATAAAAATATATTGTACACAAAAATGTTTATAT [XGTACX_site5066]	7.8 ± 0.2
AAGTTTTTTTTTAACACACACATAATAAAATAAATA [CACACA_site446]	8.15 ± 0.19
TTGAAAAATGAGCACACACACAAATACATACATATT [CACACA_site3231]	7.97 ± 0.36
CAAAAAACAACAGATCGTACAAAATATTATATATAT [XGTACX_site2285]	8.12 ± 0.67
TATCCATATTTGTTCACACACACACCGATTTATATA [CACACA_site5888]	8.12 ± 0.62
TTTTAACAAAAAAAAAGAAAAGAAAAGAAAATAATA [XGTACX_negctrl_site530]	7.32 ± 0.61
TTAACTCTGGAGAAAAGTACATAGTATCTGGTAACA [XGTACX_site4941]	7.66 ± 0.67
ATAAATAAATAAATAAATAAATATACATATACATAT [CACACA_negctrl_site205]	7.58 ± 0.59
AGCATTTTAAGTTATACACACATTTTGAATCTATAT [CACACA_site7599]	7.88 ± 0.63
AAGAAATAAAAAGAATGTACACAATATGTATTATAA [XGTACX_site4733]	7.99 ± 0.43
TGGACAATTGTTTATTGTACTTAAATTTTATGTTCT [XGTACX_site8974]	7.54 ± 0.48
TCTTATTCAAACGTAAAACGAAGAAGAAAAAAAAAA [CACACA_negctrl_site149]	7.74 ± 0.81
ATATACTATATTTTAACACACAAAAAAAAAAAATAT [CACACA_site1091]	8 ± 0.59
AAATTATATATATTACGTACATAGAACTTTACAGAA [XGTACX_site6646]	7.96 ± 0.34
ATGTTACACCGACACACACACATAAAAAAACAAAAA [CACACA_site5750]	8.15 ± 0.34
GTGTTTGAAAATAAAGCATGCAAATATATTTGAAAT [TGCATGCA_site386]	8.03 ± 0.71
TTTTTTTTGTTCATTGTGCACATTGCTTGCATGGAA [GTGCAC_site9693]	10.5 ± 0.15
AAAATAATAAATAAATGTACATATATATATATATAT [XGTACX_site3078]	9.2 ± 0.25
ATAAGATTATACAATTGTACGTTGTTCAAGATAAGG [XGTACX_site191]	7.96 ± 0.48
AACTAATTCATGTTATATTAGATAAAAAAAAAAAAA [TGCATGCA_negctrl_site340]	7.98 ± 0.57
